Test results from the supplement of paper PMC3334620.
Over roughly 33,000 sequences, “E-score (-0.5 to 0.5)” has its median near -0.021; the highest 2% begin near 0.32. The list shows a part of the results.

biological target: T1, Zap1 (UniProt P47043); test: PBM E-score (8-mer binding enrichment) (E-score (-0.5 to 0.5)); higher = stronger / more preferred TF binding; most listed sequences are background and not binding sites; details: protein concentration: 200 nM; construct: GST-full length
T1 sequence: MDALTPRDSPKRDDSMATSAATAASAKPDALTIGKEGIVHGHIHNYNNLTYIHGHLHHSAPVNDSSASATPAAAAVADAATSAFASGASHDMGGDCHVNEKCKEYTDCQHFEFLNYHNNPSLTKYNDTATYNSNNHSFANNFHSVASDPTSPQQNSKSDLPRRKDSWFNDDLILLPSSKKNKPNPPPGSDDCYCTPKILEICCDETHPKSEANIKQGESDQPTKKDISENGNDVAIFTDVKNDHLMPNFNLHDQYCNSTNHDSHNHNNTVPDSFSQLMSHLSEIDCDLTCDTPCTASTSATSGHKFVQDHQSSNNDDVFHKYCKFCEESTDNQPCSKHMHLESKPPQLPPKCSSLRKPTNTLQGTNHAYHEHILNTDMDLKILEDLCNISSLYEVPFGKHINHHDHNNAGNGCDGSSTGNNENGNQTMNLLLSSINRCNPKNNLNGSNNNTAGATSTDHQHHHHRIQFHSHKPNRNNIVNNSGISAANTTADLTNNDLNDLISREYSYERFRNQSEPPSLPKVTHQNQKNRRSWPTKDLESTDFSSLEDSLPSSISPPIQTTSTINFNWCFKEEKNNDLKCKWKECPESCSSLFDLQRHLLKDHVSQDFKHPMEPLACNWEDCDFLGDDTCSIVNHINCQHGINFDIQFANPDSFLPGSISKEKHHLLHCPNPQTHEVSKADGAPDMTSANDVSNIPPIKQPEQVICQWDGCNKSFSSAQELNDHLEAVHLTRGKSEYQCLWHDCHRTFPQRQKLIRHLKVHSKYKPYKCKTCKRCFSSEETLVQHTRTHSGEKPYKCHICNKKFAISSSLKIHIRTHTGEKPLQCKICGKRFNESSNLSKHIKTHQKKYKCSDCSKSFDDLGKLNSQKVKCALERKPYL
Outline: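 The E-score, a modified Wilcoxon-Mann-Whitney statistic, was computed by the Universal PBM Analysis Suite for every ungapped eight-base word pooled with its reverse complement. Scans behind it were normalised with masliner after bound GST-tagged yeast transcription factors were detected with fluorescent anti-GST. The proteins, at about 100-200 nM, had been applied to universal all-10-mer Agilent arrays made double-stranded by primer extension.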

Sequence	PBM E-score
GCCTACTA	-0.0183
GGGTAAGA	0.0973
GCGCAAGC	-0.0825
ACGCTTAA	0.0144
ACACCAGC	-0.271
TAGACTCA	-0.1
ACTCGGTC	0.0105
CACAGCAA	0.178
ACTGCTAT	-0.0537
CGACGTAA	-0.0764
CGACTCAA	-0.0614
GTCCCCGA	0.00542
ACCGGTAT	0.132
AAGGTGGA	0.0564
AATGGCGC	-0.189
CGGTAAAC	0.0266
CGATTACA	-0.0321
ATGCCAAA	0.0814
ATCCTGAA	0.0947
AGACATCG	-0.23
ATCGTAAA	0.0638
GGCGTGTA	-0.258

Sequence	PBM E-score
CTGGGTGA	0.0907
GCAACGCA	-0.244
CGGTGTCC	0.071
ACTTTTTA	0.113
TGCCCTAA	-0.171
AAGATAAC	0.192
ACGTAGCT	-0.0685
GCAGCGCC	-0.171
GCATAAAC	0.109
CGGGCCAA	-0.228
CACTAAGA	0.0936
ATAGCTCA	-0.0466
AACATAGT	-0.0372
ATCCTGTC	-0.0221
TCAGACGA	-0.12
AGCTGATA	-0.146
AAAAAGAC	0.214
CTAAGTAC	0.0484
CACATCAC	-0.0433
AAGAGGAC	-0.154
TCACCCGA	0.114
AAGAGCGG	-0.22

Sequence	PBM E-score
AGAGCAAT	-0.181
CACCTTTC	0.0949
GACATTGC	-0.24
ATATTTAA	0.226
CGGTACTC	0.0175
ATGGTCCC	-0.0451
TCCTAGCA	-0.175
CCGAATGC	-0.165
TTCAAGAA	0.184
GGTTGTAA	0.278
CGGGCCGA	-0.105
GCGGGGAA	-0.0256
AGAAAAAG	0.0427
CTGCCAAG	-0.158
CCTTCCCG	-0.113
GAAGGCCC	-0.059
AGTCAGGA	-0.205
AGGGAAGC	-0.273
TCGAGAAA	0.0623
ACATAGCA	-0.241
CTATTTAA	0.0132
ACTGCTCG	-0.159

Sequence	PBM E-score
TAGGAATA	0.112
ATCGCGGG	0.0185
AGTCTGAG	-0.16
AGTTAAGG	0.103
CTACGTGC	-0.216
ATTTTATG	0.112
GCAGAAGA	-0.0636
AGACATAA	-0.0444
CCAGTACG	-0.0816
CCGTATAG	0.051
GTCTTTAA	0.0536
AGTCCATC	-0.239
TATCGGAA	0.143
GTCGCTTA	-0.141
GTGCCCTA	-0.314
AATCCCAG	-0.0283
CTAGCGAC	-0.0087
CGTCGCGA	0.00596
AACATGAC	0.159
ACCTGGCT	-0.0511
